These are yes or no findings as the source states them, for the method shown. Some entries that bind do so weakly or less than the wild type. Tags and fused reporters may be left off the sequences shown.
T1: CD148-Fc (CD148 ectodomain fused to Fc region of human IgG) (UniProt Q12913)
T1 sequence: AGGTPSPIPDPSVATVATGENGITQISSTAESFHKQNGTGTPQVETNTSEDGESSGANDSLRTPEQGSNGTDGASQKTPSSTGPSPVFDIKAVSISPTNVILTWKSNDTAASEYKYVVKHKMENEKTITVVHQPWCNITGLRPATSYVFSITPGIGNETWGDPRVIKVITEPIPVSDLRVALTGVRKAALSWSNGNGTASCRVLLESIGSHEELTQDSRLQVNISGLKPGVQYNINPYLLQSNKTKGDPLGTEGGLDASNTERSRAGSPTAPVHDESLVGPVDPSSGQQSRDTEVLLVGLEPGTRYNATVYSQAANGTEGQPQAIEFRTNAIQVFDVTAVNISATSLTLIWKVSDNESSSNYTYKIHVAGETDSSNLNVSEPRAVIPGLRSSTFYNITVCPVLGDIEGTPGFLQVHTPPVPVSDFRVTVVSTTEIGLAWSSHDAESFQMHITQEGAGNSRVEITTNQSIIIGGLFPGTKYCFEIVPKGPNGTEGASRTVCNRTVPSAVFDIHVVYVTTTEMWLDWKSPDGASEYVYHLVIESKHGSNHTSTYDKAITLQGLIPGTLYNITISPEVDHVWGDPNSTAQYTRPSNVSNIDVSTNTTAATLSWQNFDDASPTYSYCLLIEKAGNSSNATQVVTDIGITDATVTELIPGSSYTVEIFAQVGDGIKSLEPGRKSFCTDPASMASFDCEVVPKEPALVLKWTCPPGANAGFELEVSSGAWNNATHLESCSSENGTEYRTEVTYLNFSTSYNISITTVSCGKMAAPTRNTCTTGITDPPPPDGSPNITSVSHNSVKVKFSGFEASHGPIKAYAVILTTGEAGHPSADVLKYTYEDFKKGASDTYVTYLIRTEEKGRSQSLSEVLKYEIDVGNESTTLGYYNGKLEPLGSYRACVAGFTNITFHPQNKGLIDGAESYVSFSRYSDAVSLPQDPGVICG

B1: Trimeric TSP1 fragment, oligomerization domain + procollagen + type 1 repeats (aa 261–547) (domain or fragment, human, UniProt P07996 261-547, looked up)
chain: HKTKDLQAICGISCDELSSMVLELRGLRTIVTTLQDSIRKVTEENKELANELRRPPLCYHNGVQYRNNEEWTVDSCTECHCQNSVTICKKVSCPIMPCSNATVPDGECCPRCWPSDSADDGWSPWSEWTSCSTSCGNGIQQRGRSCDSLNNRCEGSSVQTRTCHIQECDKRFKQDGGWSHWSPWSSCSVTCGDGVITRIRLCNSPSPQMNGKPCEGEARETKACKKDACPINGGWGPWSPWDICSVTCGGGVQKRSRLCNNPTPQFGGKDCVGDVTENQICNKQDCP
notes: Subcloned into HindIII and XbaI sites of the APtag-5 vector; also called trimeric TSP1 fragment containing the procollagen domain and type 1 repeats; trimeric TSP1 fragment that contains all three type 1 repeats; source: HEK293E suspension culture, transient transfection, purified from culture supernatant (HisTrap Excel); not shown: Myc, C-terminal, kept

Biological target: T1, CD148-Fc (CD148 ectodomain fused to Fc region of human IgG)
Experiment: pull-down; CD148-Fc pull-down as in Fig 1B, bound fragment detected by colloidal blue stain; data not shown; both purified

binding	Molecule
binds	TSP1 fragment, procollagen + type 1 repeats (aa 316–547) (from UniProt P07996 316-547) (domain or fragment)

Biological target: T1, CD148-Fc (CD148 ectodomain fused to Fc region of human IgG)
Experiment: pull-down; TSP1 fragments (17 nM) incubated with CD148-Fc (44 pmol) or equal mole of control Fc for 4 h at 4°C; Fc proteins pulled down with Protein-G sepharose 1 h at 4°C; beads washed with PBS; bound protein by anti-Myc immunoblotting; both purified

binding	Molecule
no binding (tested: 17 nM)	TSP1 fragment, procollagen (aa 316–373) (from UniProt P07996 316-373) (domain or fragment)
binds	TSP1 fragment, type 1 repeats (aa 379–547) (from UniProt P07996 379-547) (domain or fragment)
no binding (tested: 17 nM)	TSP1 fragment, amino-terminus (aa 24–221) (from UniProt P07996 24-221) (domain or fragment)
binds	TSP1 fragment, 1^st type 1 repeat (aa 379–429) (from UniProt P07996 379-429) (domain or fragment)
no binding (tested: 17 nM)	TSP1 fragment, type 3 repeats and C-terminus (aa 691–1170) (from UniProt P07996 691-1170) (domain or fragment)
no binding (tested: 17 nM)	TSP1 fragment, type 2 repeats (aa 548–690) (from UniProt P07996 548-690) (domain or fragment)
binds	TSP1 fragment, procollagen + 1^st type 1 repeat (aa316-429) (from UniProt P07996 316-429) (domain or fragment)
binds	TSP1 fragment, procollagen + type 1 repeats (aa 316–547) (from UniProt P07996 316-547) (domain or fragment)
no binding (tested: 17 nM)	TSP1 fragment, 2^nd & 3^rd type 1 repeats (aa 435–547) (from UniProt P07996 435-547) (domain or fragment)

Biological target: T1, CD148-Fc (CD148 ectodomain fused to Fc region of human IgG)
Experiment: solid-phase binding assay with AP-fusion protein (AP activity read-out), competition; Protein-A plates with CD148-Fc (11.3 nM) or control Fc; AP-TSP1 (12 nM) with indicated doses of monomeric or trimeric TSP1 fragments, as in Fig 1C; compared by molar concentration and by valency; both purified

binding	Molecule
binds	AP-TSP1 (alkaline phosphatase linked to TSP1) (from UniProt P07996 19-1170) (ligand)
binds	B1

Biological target: T1, CD148-Fc (CD148 ectodomain fused to Fc region of human IgG)
Experiment: solid-phase binding assay with AP-fusion protein (AP activity read-out), competition; Protein A-coated plates coated with CD148-Fc (11.3 nM) or equal molar control Fc; pre-incubated with TSP1 fragments or whole TSP1 (25 nM; also 100 nM, S2 Fig) 1 h at 4°C; 12 nM AP-TSP1 with or without fragments overnight at 4°C; HBHA buffer pH 7.0; both purified

binding	Molecule
binds	Native human TSP1 (from UniProt P07996 19-1170)
binds	AP-TSP1 (alkaline phosphatase linked to TSP1) (from UniProt P07996 19-1170) (ligand)

From publication PMC4858292, “Determination of the CD148-Interacting Region in Thrombospondin-1” (PLoS ONE, 2016)
